# This is one part of the list.
# B1: Gal 1 (Mus musculus), P16045 (protein)
# chain: MACGLVASNLNLKPGECLKVRGEVASDAKSFVLNLGKDSNNLCLHFNPRFNAHGDANTIVCNTKEDGTWGTEHREPAFPFQPGSITEVCITFDQADLTIKLPDGHEFKFPNRLNMEAINYMAADGDFKIKCVAFE
# Columns and labels:
# Assay in all cases: glycan array binding signal (z-score within array); higher = stronger binding
# Details in all cases: glycan notation: IUPAC condensed, linker removed
# [1] = target: GlcNAc3Prop(b1-4)GlcNAc
# Outline: (§1)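 Glycan array binding is given as a within-array Z-score, which can be read as non-binding when negative. The arrays, 3228 of them, came from the Consortium for Functional Glycomics database and were retained only where the protein sequence was available. Z-scores were averaged across arrays of the same protein sequence at different concentrations or buffers and across linkers.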
# [2] = target: GlcNAc6S(b1-3)Gal(b1-4)GlcNAc
# Outline: as §1
# [3] = target: Kdn(a2-3)Gal(b1-3)GalNAc
# Outline: as §1
# [4] = target: Kdn(a2-3)Gal(b1-3)GlcNAc
# Outline: as §1
# [5] = target: Kdn(a2-3)Gal(b1-4)Glc
# Outline: as §1
# [6] = target: Kdn(a2-3)Gal(b1-4)GlcNAc
# Outline: as §1
# [7] = target: Kdn(a2-3)Gal(b1-4)[Fuc(a1-3)]GlcNAc
# Outline: as §1
# [8] = target: Kdn(a2-6)Gal(b1-4)GlcNAc
# Outline: as §1
# [9] = target: Man(a1-2)Man(a1-2)Man(a1-3)Man
# Outline: as §1
# [10] = target: Man(a1-2)Man(a1-2)Man(a1-6)[Man(a1-3)]Man
# Outline: as §1
# [11] = target: Man(a1-2)Man(a1-3)Man
# Outline: as §1
# [12] = target: Man(a1-2)Man(a1-3)[Man(a1-2)Man(a1-6)]Man
# Outline: as §1
# [13] = target: Man(a1-2)Man(a1-3)[Man(a1-2)Man(a1-6)]Man(a1-6)[Man(a1-2)Man(a1-2)Man(a1-3)]Man
# Outline: as §1
# [14] = target: Man(a1-2)Man(a1-3)[Man(a1-2)Man(a1-6)]Man(a1-6)[Man(a1-2)Man(a1-2)Man(a1-3)]Man(b1-4)GlcNAc(b1-4)GlcNAc
# Outline: as §1
# [15] = target: Man(a1-2)Man(a1-3)[Man(a1-6)]Man(a1-6)[Man(a1-2)Man(a1-3)]Man(b1-4)GlcNAc(b1-4)GlcNAc
# Outline: as §1
# [16] = target: Man(a1-2)Man(a1-6)[Man(a1-3)]Man(a1-6)[Man(a1-2)Man(a1-2)Man(a1-3)]Man
# Outline: as §1
# [17] = target: Man(a1-2)Man(a1-6)[Man(a1-3)]Man(a1-6)[Man(a1-2)Man(a1-2)Man(a1-3)]Man(b1-4)GlcNAc(b1-4)GlcNAc
# Outline: as §1
# [18] = target: Man(a1-3)[Man(a1-6)]Man
# Outline: as §1
# [19] = target: Man(a1-3)[Man(a1-6)]Man(a1-6)[Man(a1-2)Man(a1-3)]Man(b1-4)GlcNAc(b1-4)GlcNAc
# Outline: as §1
# [20] = target: Man(a1-3)[Man(a1-6)]Man(a1-6)[Man(a1-3)]Man
# Outline: as §1
# [21] = target: Man(a1-3)[Man(a1-6)]Man(a1-6)[Man(a1-3)]Man(b1-4)GlcNAc(b1-4)GlcNAc
# Outline: as §1
# [22] = target: Man(a1-3)[Man(a1-6)]Man(b1-4)GlcNAc(b1-4)GlcNAc
# Outline: as §1
# [23] = target: Man(a1-3)[Man(a1-6)]Man(b1-4)GlcNAc(b1-4)[Fuc(a1-6)]GlcNAc
# Outline: as §1
binder,measurement,setting,value
B1,glycan array binding signal (z-score),[1],0.556
same,glycan array binding signal (z-score),[2],-0.235
same,glycan array binding signal (z-score),[3],-0.129
same,glycan array binding signal (z-score),[4],-0.084
same,glycan array binding signal (z-score),[5],-0.251
same,glycan array binding signal (z-score),[6],-0.026
same,glycan array binding signal (z-score),[7],-0.15
same,glycan array binding signal (z-score),[8],-0.407
same,glycan array binding signal (z-score),[9],-0.249
same,glycan array binding signal (z-score),[10],-0.155
same,glycan array binding signal (z-score),[11],-0.297
same,glycan array binding signal (z-score),[12],-0.392
same,glycan array binding signal (z-score),[13],-0.423
same,glycan array binding signal (z-score),[14],0.079
same,glycan array binding signal (z-score),[15],-0.347
same,glycan array binding signal (z-score),[16],0.008
same,glycan array binding signal (z-score),[17],-0.317
same,glycan array binding signal (z-score),[18],-0.332
same,glycan array binding signal (z-score),[19],0.925
same,glycan array binding signal (z-score),[20],-0.285
same,glycan array binding signal (z-score),[21],-0.238
same,glycan array binding signal (z-score),[22],-0.209
same,glycan array binding signal (z-score),[23],-0.16

# From the supplement of paper PMC8728848
